± gives the standard deviation of the averaged measurements. The list shows a part of the results.
system: PfAP2-LT AP2 domain (GST-tagged); assay: gcPBM binding intensity (ln(normalized median fluorescence intensity)); higher = stronger DNA binding
How it was run: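 For binding intensity, the highest Masliner-normalised natural-log median intensity across replicate spots of either probe orientation was taken. Protein bound to the array was stained with Alexa488 anti-GST antibody and scanned at 488 nm. The protein, GST-tagged P. falciparum DNA-binding domains from E. coli at about 25 μg on average, had been applied for 1 h to an Agilent 4 × 180k array of primer-extended double-stranded 36-bp intergenic genomic probes and negative controls.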

Sequence | gcPBM binding intensity (ln)
AACACGCGCAGACACACACACACACCCACATATATA [CACACA_site2205] | 10.3 ± 0.27
TATATGAACTTATATACACACCATTTTTGTAAATCT [CACACA_site4547] | 8.83 ± 0.4
ATAAATATATTTTATAGTACATAAATATCAAAAAAA [XGTACX_site2334] | 8.54 ± 0.54
ATTTTGATGCATGGGTTGCACTAACTTTTGCCCAGA | 8.68 ± 0.51
AAACAATACTGATATTGTACATAATAAAAAAAAATA [XGTACX_site3330] | 8.84 ± 0.41
TTTTTTTTTTTAAATAGTACACATATATATATATAT [XGTACX_site6983] | 8.86 ± 0.26
TATACCTATAGACACACACACATAAATAGATATATA [CACACA_site6748] | 9.66 ± 0.33
AAAAAAAAAAAAAAAAGTACAAAAAAAAAAAAAAAA [XGTACX_site4549] | 8.3 ± 0.33
TTTTATTTTTCTAGTAGTACTTCTTTTTATAATATA [XGTACX_site1181] | 8.61 ± 0.6
AGTTTACACCTTGTGAGTACATACATACATATATAT [XGTACX_site8793] | 9.17 ± 0.48
TTAACATTTTAAAAATGTACATTTATATACATAAAT [XGTACX_site922] | 8.46 ± 0.41
AGAAAAATTCTAAGAACATGCAAAAAAATAAAAAAA [TGCATGCA_site293] | 8.71 ± 0.61
TCTAATGTAATGCATACACACAACTATCCATCAAAA [CACACA_site534] | 8.97 ± 0.3
AAAAAATAAATAAATATACACACCATATATATATTT [CACACA_site2854] | 8.89 ± 0.35
ATATATATATATATATATATATATATATTTATATAT [GTGCAC_negctrl_site180] | 9.39 ± 0.042
CTTTGTAGTTGGTCCACACACATATATGGAAGAATA [CACACA_site1280] | 9.03 ± 0.44
TAATAATAGAGACACACACACATTTTTAATAATACA [CACACA_site6691] | 9.59 ± 0.25
CACACCATATAATATATATATATGTATATATTTATA [CACACA_negctrl_site397] | 8.76 ± 0.42
TTTTTTTTTTTTTTGTCACACACCTTCATAAGAAAA [CACACA_site1166] | 8.65 ± 0.4

Sequence | gcPBM binding intensity (ln)
ACACAAAAATAAAAATGTACAAATTAAAAAAAATGA [XGTACX_site2083] | 9.12 ± 0.54
TAAAAGGAACAAAATTGTACTTAAAAGACAAAGTTA [XGTACX_site7661] | 8.63 ± 0.52
ATATATATTAATAGTTGTACTATTATAATATTACAA [XGTACX_site1213] | 8.47 ± 0.34
ATCCTGAACAGAATATGTATAAACAGAAGGAAACAA [CACACA_negctrl_site1805] | 8.98 ± 0.49
TTTGTTCTATGGAGTTTAAAATGTAATATATATTAA [GTGCAC_negctrl_site151] | 8.22 ± 0.45
TATAAGCAAAGACACACACACATATAAATATAAATA [CACACA_site7740] | 9.81 ± 0.35
TATAAAATATATATCTGTACGTATTTTATTTTTTAT [XGTACX_site6257] | 8.7 ± 0.44
TACAAAATATTTTACACACACATATAAATACCTATA [CACACA_site7272] | 9.35 ± 0.22
TATATATATATATGAGTGCATATGTGTAATATAAAA | 9.22 ± 0.18
TTATGTTCTTAATGCACACTTATAAGTATCTTATAA [CACACA_site1394] | 8.81 ± 0.47
TATATAATTATTTGATGTACACTACAATGTATTTGT [XGTACX_site7991] | 8.99 ± 0.45
AATACAATATAAAGGTGTACATATATATATATATAT [XGTACX_site68] | 9.87 ± 0.2
ATGTAGATAGATAGGGTGCTAAAAATAAGATTTATA [GTGCAC_site9602] | 8.74 ± 0.68
AAAAAAAAAAAAAAAACACACACAACACCCATACCT [CACACA_site9208] | 9.92 ± 0.14
ACATGATAAATAGTCACACATAAATATAATATATAT [CACACA_site5207] | 8.95 ± 0.37
ATTATGGATACATAAACACACATATATATAAAAAAA [CACACA_site4303] | 9.04 ± 0.43
ATAATACACAAGCACACACACACACGGATATTTATA [CACACA_site6714] | 10.4 ± 0.23
ATAATTATATTTTATTCACACATCGTTATATAGTAA [CACACA_site4743] | 8.74 ± 0.42
AATTATTCATAAAATGCATGTACATGGTTTAATATT [TGCATGCA_site87] | 8.91 ± 0.53

Sequence | gcPBM binding intensity (ln)
TCGTAAACTTTATGCACACACATATACATATTTCAT [CACACA_site739] | 9.53 ± 0.4
ATACATGTTTTATGTGCACACAAAGTTGTTATGAGG [CACACA_site4032] | 9.87 ± 0.31
TTATAATTTAATAAATGTACATAAATAATATACATA [XGTACX_site7271] | 8.43 ± 0.45
AACACAATAAAAATTAAAAATGTTAAGTAAATATAA [GTGCAC_negctrl_site60] | 8.68 ± 0.52
AGACAATATCTTATTTGTACATATGTATTCCTCATA [XGTACX_site5757] | 8.93 ± 0.43
AAAAAAAAAAAAAAAACACACATATAGATTATTGTA [CACACA_site7797] | 8.74 ± 0.35
TTTTAATTTATCGACACACGCATGAATAGAAATTAG [CACACA_site3361] | 8.72 ± 0.42
TATTTTTATTTTCCTTCACACATTTTTTATATTTTT [CACACA_site5830] | 8.92 ± 0.49
TTATAAATTTAAAAAGTGCATAATAATAACAAAAAG | 8.68 ± 0.45
TATGTATATTTAAATGCATGTGATTATTTTTGACTT [TGCATGCA_site568] | 8.66 ± 0.38
ACTTTTTTTTTTTTTTTAGATTACATAAATATAAAT [CACACA_negctrl_site139] | 8.47 ± 0.5
TGCCATATATATATTAAATACATAATAATGAGCCTA [GTGCAC_negctrl_site10] | 8.62 ± 0.47
AGTCATAAATTTATTTGTACATATAATATATATATA [XGTACX_site8489] | 8.7 ± 0.3
AAAATATATAATTTTTAACACACAAAAAAAAAAAAA [CACACA_site9192] | 8.63 ± 0.42
ATAAACAAAAAAAAAAAATATATCAATATATATATA [CACACA_negctrl_site299] | 8.62 ± 0.49
TAAAAATATAAAAAGTGTACAATATATAAATTAATA [XGTACX_site1606] | 8.84 ± 0.44
ATATTAAAAAAATATGCATGCAAATATTATTTTGTA [TGCATGCA_site191] | 8.71 ± 0.33
AATCAAATTTTCAAGTCGCACCAAACAAAAAAATGA [CACACA_negctrl_site1397] | 8.84 ± 0.52
TATTTAATTAATATAATATTAAACGGAAAAGATAAA [TGCATGCA_negctrl_site148] | 8.38 ± 0.54

From the supplement of paper PMC11417369
